Source: article PMC4460075, “ULK2 Ser 1027 Phosphorylation by PKA Regulates Its Nuclear Localization Occurring through Karyopherin Beta 2 Recognition of a PY-NLS Motif” (PLoS ONE, 2015)
No constants are given. Whether binding was seen depends on the method and setting. Binding seen in cells or lysates may run through a third protein. Some entries that bind do so weakly or less than the wild type. Tags and fused reporters may be left off the sequences shown.

The chains behind the UniProt entries cited, without tags or fusion partners.
UniProt Q92973: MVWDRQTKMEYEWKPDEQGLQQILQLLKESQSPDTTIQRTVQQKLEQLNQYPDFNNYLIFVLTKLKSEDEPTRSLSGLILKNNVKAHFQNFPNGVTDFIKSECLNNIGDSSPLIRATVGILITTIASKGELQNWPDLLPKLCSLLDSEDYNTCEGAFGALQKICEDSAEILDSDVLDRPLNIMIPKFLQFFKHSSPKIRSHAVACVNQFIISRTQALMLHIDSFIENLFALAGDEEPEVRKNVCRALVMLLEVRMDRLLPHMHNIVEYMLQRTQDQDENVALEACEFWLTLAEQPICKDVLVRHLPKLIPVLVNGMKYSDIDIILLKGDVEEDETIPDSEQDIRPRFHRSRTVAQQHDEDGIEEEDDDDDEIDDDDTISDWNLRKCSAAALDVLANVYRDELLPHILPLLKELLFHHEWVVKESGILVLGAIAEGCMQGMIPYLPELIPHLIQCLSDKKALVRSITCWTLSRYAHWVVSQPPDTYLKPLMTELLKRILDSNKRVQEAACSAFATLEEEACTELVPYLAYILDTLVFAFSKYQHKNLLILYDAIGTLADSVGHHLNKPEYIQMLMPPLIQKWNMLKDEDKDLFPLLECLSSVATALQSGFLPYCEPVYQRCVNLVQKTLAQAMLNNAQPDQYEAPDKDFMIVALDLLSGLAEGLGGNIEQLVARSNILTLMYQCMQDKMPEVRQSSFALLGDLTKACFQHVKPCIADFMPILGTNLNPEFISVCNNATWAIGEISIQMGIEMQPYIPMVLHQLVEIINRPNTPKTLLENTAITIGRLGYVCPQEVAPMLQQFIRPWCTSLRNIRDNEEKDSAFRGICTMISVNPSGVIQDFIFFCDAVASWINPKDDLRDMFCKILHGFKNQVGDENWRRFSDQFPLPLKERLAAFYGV

Legend:
[1] = target: T1, GST-ULK2 WT (601–1036 aa) (human) (UniProt Q8IYT8); experiment: pull-down; GST-ULK2 1–600 or 601–1036 bound to glutathione-sepharose beads (about 1 mg by the text, 0.1 mg by the legend) incubated with HEK293 cell lysates; blot for Kapβ2; only the target purified
T1 sequence: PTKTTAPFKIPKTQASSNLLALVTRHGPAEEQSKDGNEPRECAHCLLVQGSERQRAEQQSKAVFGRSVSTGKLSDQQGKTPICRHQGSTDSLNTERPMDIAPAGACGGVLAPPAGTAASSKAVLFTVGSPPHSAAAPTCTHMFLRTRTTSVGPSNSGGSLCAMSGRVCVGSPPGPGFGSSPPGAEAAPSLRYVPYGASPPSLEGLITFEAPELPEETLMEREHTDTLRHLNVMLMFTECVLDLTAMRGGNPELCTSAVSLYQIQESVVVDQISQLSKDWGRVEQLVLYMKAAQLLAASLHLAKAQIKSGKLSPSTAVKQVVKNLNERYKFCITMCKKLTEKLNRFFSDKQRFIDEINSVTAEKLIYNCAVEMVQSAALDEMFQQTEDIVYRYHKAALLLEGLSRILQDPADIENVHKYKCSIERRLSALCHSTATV

[2] = target: T2, EGFP-ULK2 P242A mutant (human) (UniProt Q8IYT8); experiment: co-IP; HEK293 cells transfected with EGFP-ULK2 WT, P242A or P794A, lysed after 48 hours; IP with rabbit anti-EGFP antibody; blot for endogenous Kapβ2 (Fig 2B, Fig 5A)
T2 sequence: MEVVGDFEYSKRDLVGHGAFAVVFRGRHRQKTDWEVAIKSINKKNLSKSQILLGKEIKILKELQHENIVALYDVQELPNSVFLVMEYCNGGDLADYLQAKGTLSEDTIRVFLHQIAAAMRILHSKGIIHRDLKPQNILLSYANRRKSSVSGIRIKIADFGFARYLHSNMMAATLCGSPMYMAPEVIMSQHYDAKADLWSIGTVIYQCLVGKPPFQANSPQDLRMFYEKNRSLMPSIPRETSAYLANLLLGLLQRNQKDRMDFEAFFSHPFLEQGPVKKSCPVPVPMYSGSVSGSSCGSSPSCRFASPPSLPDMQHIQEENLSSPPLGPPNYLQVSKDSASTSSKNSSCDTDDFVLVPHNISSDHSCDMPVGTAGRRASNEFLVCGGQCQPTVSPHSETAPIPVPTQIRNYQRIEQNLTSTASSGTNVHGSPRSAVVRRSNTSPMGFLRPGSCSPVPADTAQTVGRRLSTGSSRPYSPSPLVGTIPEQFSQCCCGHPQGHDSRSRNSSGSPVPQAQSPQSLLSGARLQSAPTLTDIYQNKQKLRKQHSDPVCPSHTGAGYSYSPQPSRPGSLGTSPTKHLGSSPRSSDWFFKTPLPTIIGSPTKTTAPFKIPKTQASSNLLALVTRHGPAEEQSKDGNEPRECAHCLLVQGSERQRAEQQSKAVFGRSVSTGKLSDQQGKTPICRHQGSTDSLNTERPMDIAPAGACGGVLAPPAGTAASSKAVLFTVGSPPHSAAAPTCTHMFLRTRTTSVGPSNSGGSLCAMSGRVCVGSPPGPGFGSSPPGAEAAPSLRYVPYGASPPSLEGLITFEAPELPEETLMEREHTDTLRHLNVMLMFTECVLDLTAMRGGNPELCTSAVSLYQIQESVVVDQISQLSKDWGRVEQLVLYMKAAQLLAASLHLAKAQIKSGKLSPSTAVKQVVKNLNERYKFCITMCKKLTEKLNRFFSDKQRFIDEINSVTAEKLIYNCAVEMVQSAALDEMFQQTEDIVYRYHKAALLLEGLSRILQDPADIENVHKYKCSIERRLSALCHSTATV

“karyopherin beta 2 (Kapβ2), endogenous (from UniProt Q92973 1-898)” was tested, and the binding [1] was “binds” and the binding [2] was “binds”.
